For 110 compounds, z-score results are on record in PubChem BioAssay AID488969 (Vanderbilt High Throughput Screening Facility, 2010).

Structures are written as SMILES. In all, about 110,000 compounds were measured (“z-score”: median about -0.1, highest 2% from about 2 on). This is one part of the list. Activity calls are given as the source filed them.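 Rule for the calls: active = z-score in the third read window above 3 or below -3; inactive = the rest.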

The target in the assay is Metabotropic glutamate receptor 8 (Rattus norvegicus) (UniProt P70579). The assay can be described thus: rat mGluR8 modulators via GIRK flux, primary screen, cell-based, thallium flux, HTS (AID 488969). The note with it: HEK293 rat mGluR8, GIRK (G protein-gated inwardly rectifying potassium channel) thallium flux, FluoZin2; at 10 µM; stronger effect = higher value; submaximal glutamate (EC20) added with thallium.
UniProt P70579, sequence (P70579 whole entry, looked up): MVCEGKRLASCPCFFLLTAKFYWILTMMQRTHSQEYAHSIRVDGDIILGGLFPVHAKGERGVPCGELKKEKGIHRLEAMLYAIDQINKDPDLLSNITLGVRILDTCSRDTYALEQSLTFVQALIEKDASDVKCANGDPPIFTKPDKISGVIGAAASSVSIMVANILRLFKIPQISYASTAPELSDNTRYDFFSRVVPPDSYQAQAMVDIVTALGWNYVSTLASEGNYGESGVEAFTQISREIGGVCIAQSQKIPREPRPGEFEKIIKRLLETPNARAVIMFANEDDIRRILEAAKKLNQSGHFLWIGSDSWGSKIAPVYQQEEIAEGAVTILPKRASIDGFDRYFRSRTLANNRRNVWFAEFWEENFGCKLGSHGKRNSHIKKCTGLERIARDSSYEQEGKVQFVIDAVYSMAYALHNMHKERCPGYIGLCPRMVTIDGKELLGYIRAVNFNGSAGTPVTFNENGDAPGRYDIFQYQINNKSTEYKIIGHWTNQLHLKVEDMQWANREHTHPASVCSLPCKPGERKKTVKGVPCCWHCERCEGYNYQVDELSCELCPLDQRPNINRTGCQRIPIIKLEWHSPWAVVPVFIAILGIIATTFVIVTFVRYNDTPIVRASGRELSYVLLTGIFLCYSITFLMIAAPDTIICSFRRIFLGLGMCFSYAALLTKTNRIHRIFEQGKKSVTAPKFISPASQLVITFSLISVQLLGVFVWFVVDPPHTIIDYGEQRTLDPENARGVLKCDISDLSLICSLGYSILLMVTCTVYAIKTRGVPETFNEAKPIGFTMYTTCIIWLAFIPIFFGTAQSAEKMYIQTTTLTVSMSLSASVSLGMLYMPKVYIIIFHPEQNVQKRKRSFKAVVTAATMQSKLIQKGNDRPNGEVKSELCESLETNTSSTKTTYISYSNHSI
Take `COc1ccc(-c2cnc(OC(C)(C)C)nc2OC(C)(C)C)cc1OC`: the z-score was -0.0419.
Consider `COc1ccc(OC)c(NC(=O)c2nnn(CCc3ccccc3)c2N)c1`, for which the z-score is -0.357.
In the case of `Cn1cc(C(=O)N2CCN(c3ccccn3)CC2)c(=O)c2cc(S(=O)(=O)N3CCOCC3)ccc21` it was -0.132; in that of `Cc1cccc(C)c1NC(=O)c1ccc([N+](=O)[O-])s1`, -0.118; in that of `CC1(C)NC(=O)N(CC(O)CN2C(=O)CCC2=O)C1=O` (stereo not given), -0.543.
In the case of `CCn1c(CNC(=O)c2ccc(OC)c(OC)c2)nnc1SCC(=O)c1ccc(OC)cc1` it was -0.228.
In the case of `Cc1ccccc1Cn1nc(C)c(NC(=O)c2noc3c2CCCC3)c1C` it was -0.0577; in that of `Cc1ccc(C(=O)Nc2c(-c3cccs3)c(=O)c3ccccc3n2C)cc1`, 0.325.
On to `Cc1nnc(C)n1/N=C/c1cccn1C`, for which the z-score amounted to 0.353.
As to `c1ccc(CSc2nncn2-c2ccccn2)cc1`, the z-score was -0.159.
`COc1c(Cl)cc(Cl)cc1/C=C/C(=O)c1ccc(NC(=O)c2cccs2)cc1`: the z-score is -0.0704.
In the case of `O=C(Nc1ccc2c(c1)OCCO2)c1ccc(Br)s1` it was 0.348.
In the case of `COCCn1c(C)cc(C(=O)CN2C(=O)NC3(CCCCCCC3)C2=O)c1C` it was 0.319; in that of `CCC(=O)N1c2ccc(S(=O)(=O)CCC(=O)NCc3cccs3)cc2CC1C` (stereo not given), -0.317; in that of `O=C(O)CCCNC(=O)c1cncc(Br)c1`, 1.28.
In the case of `O=S(=O)(c1ccccc1)c1nc(-c2ccccc2)oc1N1CCCCC1` it was -0.0433.
For `Cc1nn(Cc2ccc(Cl)cc2)c(C)c1NC(=O)CCCn1nc(C)c([N+](=O)[O-])c1C`, the z-score is -0.321.
Take `O=C(Cn1c(=O)oc2cc(S(=O)(=O)N3CCOCC3)ccc21)N1CCc2ccccc2C1`: the z-score was -0.376.
In the case of `COc1ccc(-n2nc3c(c2NC(=O)C2CCCC2)CS(=O)C3)cc1` (stereo not given) it was -0.284; in that of `CC1(C)Cc2ccccc2-c2nnc(-c3ccco3)n21`, -1.09; in that of `CCOC(=O)C1=C(c2cccc(F)c2)NC(=S)NC1C` (stereo not given), -0.0733.
In the case of `Cc1c(NC(=O)c2cccc(-c3cc4ccccc4oc3=O)c2)cccc1-c1nc2ncccc2o1` it was -0.129; in that of `Cc1ccc(-n2[nH]c(C)c(C=Nc3ccc(S(=O)(=O)Nc4nc(C)cc(C)n4)cc3)c2=O)c(C)c1`, -0.0925; in that of `O=C(Nc1scc(-c2cccs2)c1C(=O)O)c1cccs1`, 1.01.
Regarding `COc1ccc(C(=O)CN2C(=O)c3ccccc3C2=O)c(OC)c1C`, the z-score is -0.207.
On to `CCCn1cnc2c(sc3nc4c(cc32)CSC(C)(C)C4)c1=O`, for which the z-score was -0.0716.
For the compound `CCOC(=O)c1[nH]cnc1C(=O)Nc1ccccn1`, the z-score came out at 0.109.
In the case of `COC(=O)c1sccc1-n1cccc1C(=O)N1CCOCC1` it was 0.0627; in that of `O=C(/N=C1/c2ccccc2CN1c1ccccc1)Nc1ccccc1`, -0.236; in that of `C=CCn1c(SCCCC)nc(O)cc1=O`, -0.421.
For `NC(CSC12CC3CC(CC(C3)C1)C2)C(=O)O` (stereo not given), the z-score was determined as 0.309.
In the case of `O=[N+]([O-])c1cc(F)c(N2CCOCC2)cc1N1CCCCC1` it was -0.604.
Regarding `Cc1cccc(NC(=O)Cn2c(/C=C/c3ccccc3)nc3ccccc32)c1`, the z-score is -0.725.
Compound `CC1=CS/C(=C(/C#N)C(=O)N2CCOCC2)N1c1ccccc1` showed a z-score of 0.337.
`CCc1ccc(-n2nnnc2SCC(=O)NNC(=O)c2ccco2)cc1` returned a z-score of 0.103.
As to `CCOC(=O)CCCNC(=O)COC(=O)c1cc(C)cc(C)c1`, the z-score is -0.00701.
In the case of `COC(=O)c1ccccc1NC(=O)C1CCCN(S(C)(=O)=O)C1` (stereo not given) it was 0.0683; in that of `O=C(COC(=O)/C=C/c1ccccc1)Nc1cc(C(F)(F)F)ccc1N1CCOCC1`, -0.0626.
In the case of `COc1cc(OC)c(C2N(c3ccccn3)C(=O)C3CCCN32)cc1OC` (stereo not given) it was 0.314; in that of `COc1cccc(NC(=O)C2c3cc(OC)c(OC)cc3C(=O)N(C)C2c2cccnc2)c1` (stereo not given), -0.0359.
In the case of `CS(=O)(=O)N1CCc2cc(-c3csc(NC(=O)C(c4ccccc4)c4ccccc4)n3)ccc21` it was 0.0668; in that of `CCN(C(=O)COC(=O)c1n[nH]c2ccccc12)C1CCS(=O)(=O)C1` (stereo not given), -0.0797; in that of `CCCc1cc(-c2n[nH]c(C(=O)OCC)c2-c2cscn2)c(O)cc1O`, -0.373.
Compound `COc1ccc(-c2nnc(NC(=O)C(C)C)o2)cc1` displayed a z-score of 2.14.
In turn, `COc1ccc(C(CCNCc2ccccc2)c2ccc(F)cc2)cc1` (stereo not given) displayed a z-score of 1.8.
As to `COc1cc(C(=O)N2CCN(c3cc(Cl)ccc3Cl)CC2)cc(OC)c1OC`, the z-score is -0.5.
In the case of `O=C1CC(N(CCc2ccccc2)C(=S)Nc2ccccc2)C(=O)N1c1ccccc1` (stereo not given) it was 0.57; in that of `CC1(C)CC2(CC(C)(C(=O)CSc3nc4ccccc4s3)OC2=O)C(=O)O1` (stereo not given), 0.026; in that of `O=C(NCc1nc2ccccc2[nH]1)c1cccc(S(=O)(=O)N2CCCC2)c1`, 2.4.
`CCCNc1ncnc2sc(C)c(C)c12`: the z-score is -1.21.
In the case of `COc1ccc(/C=C/C(=O)Oc2ccc(/C=N/NC(=O)COc3c(C)cccc3C)cc2)cc1` it was -1.68.
`Cn1cccc1C(=O)NS(=O)(=O)c1ccccc1Cl` displayed a z-score of 0.983.
In the case of `O=C(Nc1cccc(C(F)(F)F)c1)c1cc(-c2cccs2)on1` it was -0.52; in that of `CC(C)CC1N=C2c3ccccc3N=C(SCc3cc(=O)n4ccccc4n3)N2C1=O` (stereo not given), -0.382.
In turn, `Cn1nc(C(=O)NC2CCCCCC2)ccc1=O` registered a z-score of 1.32.
Consider `CCNC(=S)Nc1cccc(Cl)c1C`, for which the z-score came out at 0.0976.
For `C/C(=N/NC(=O)C1CCN(S(=O)(=O)c2ccc(C)cc2)CC1)c1cccc([N+](=O)[O-])c1`, the z-score was -0.0465.
As to `Cc1ccc(N(C(=O)Cc2c[nH]c3ccccc23)C(C(=O)NC2CCCCC2)c2ccco2)cc1` (stereo not given), the z-score is -0.0196.
In the case of `CCCCSc1nnc(CSc2nc3nc(C)cc(C)n3n2)o1` it was -0.473.
Turning to `CC(C)CCNC(=O)[C@@H](NC(=O)c1c(F)cccc1F)C(C)C`, the z-score is -0.0578.
In the case of `CCN(CC)C(=O)CCNS(=O)(=O)c1ccc(C)cc1` it was 0.0788; in that of `CCOC(=O)c1c(C)[nH]c(C2=NNC(=Nc3ccccc3)SC2)c1C`, 0.0151; in that of `C=CCNc1nc(Nc2ccc(-c3nc4ccccc4o3)cc2)nc(N2CCOCC2)n1`, 0.132.
In the case of `CC(Oc1ccc(Cl)cc1Cl)C(=O)NCc1ccncc1` (stereo not given) it was -0.474; in that of `c1ccc2c(c1)oc1c(Nc3ccc4c(c3)OCCO4)ncnc12`, -0.257; in that of `O=C(COc1ccc(S(=O)(=O)N2CCCCC2)cc1)NCc1cccnc1`, 0.103.
In turn, `COc1cccc(C2/C(=C(\O)c3ccc4c(c3)OCCO4)C(=O)C(=O)N2CCN(C)C)c1` (stereo not given) had a z-score of 0.625.
In the case of `CC(OC(=O)C1CCC(=O)N1)C(=O)Nc1cc(Cl)cc(Cl)c1` (stereo not given) it was -0.0373; in that of `Cn1c(=O)c2c(nc(Br)n2CCSc2nc3ccccc3o2)n(C)c1=O`, -0.0753.
In the case of `O=C(Oc1ccccc1N1C(=O)C2CCCCC2C1=O)c1ccccc1F` (stereo not given) it was -0.195.
Take `CCCCCn1nc(C)c(/C=N\NC(=O)c2cc(C)oc2C)c1C`: the z-score was -0.235.
Take `CCn1c(CSc2nc3ccccc3s2)nc2ccccc21`: the z-score is -0.855.
In the case of `Cc1ccccc1N(C(=O)Cn1nnc(-c2cccs2)n1)C(C(=O)NCCC(C)C)c1ccco1` (stereo not given) it was -1.03; in that of `O=C(CSc1nnnn1-c1cccc(Cl)c1)Nc1ccc2c(c1)CCC2`, -0.0138; in that of `N#Cc1c(NC(=O)CN2CCCCC2)sc2c1CCC2`, 0.71.
Regarding `O=C(Cc1ccccc1)Nc1ccccc1Sc1ccccc1`, the z-score is -0.00777.
In the case of `O=C(CNC(=S)N(Cc1ccccc1)Cc1cccnc1)NC1CC1` it was 0.186; in that of `CC1(C)CC(=O)C=C(Nc2ccc(S(N)(=O)=O)cc2)C1`, -0.0534; in that of `COCCn1c(C)cc(C(=O)COC(=O)c2ccc(N3CCCC3=O)cc2)c1C`, -0.104.
Regarding `COc1cc(C2NC(=S)NC(C)=C2C(=O)c2ccccc2)ccc1O` (stereo not given), the z-score is -0.116.
Compound `O=C1CNC(=O)/C1=C\c1ccc(O)cc1` had a z-score of 0.091.
In the case of `COc1cccc(-c2nnn(CCC(=O)O)n2)c1` it was -0.297; in that of `Cc1ccc(SCCC(=O)OCC(=O)Nc2ncc(Cl)cc2Cl)cc1`, 0.0165.
Consider `CN(C(=O)c1ccccc1NC(=O)C(F)(F)F)c1ccccc1`, for which the z-score is -0.0699.
Take `COc1cccc(/C=N/NC(=O)CN(CCc2ccccc2)S(=O)(=O)c2ccc(NC(C)=O)cc2)c1`: the z-score is -0.0629.
In the case of `CC(C)Sc1nc(N2CCOCC2)c2c(c1C#N)CC(C)(C)N(C)C2` it was -0.402; in that of `COC(=O)C1C(O)=C(C=Nc2ccc(N)cc2)C(=O)CC1(C)C` (stereo not given), -0.549.
In the case of `CC(=O)c1cccc(NC(=O)C2CCCCC2)c1` it was -0.342; in that of `CCCCC(=O)c1ccc(O)cc1O`, 0.287; in that of `COCCNC(=O)CNC(=O)c1nn(-c2ccc(OC)c(Cl)c2)c(=O)c2ccccc12`, -0.158.
In the case of `Cc1ccc(NC(=O)CCC(=O)NNC(=O)COc2ccccc2)cc1C` it was 0.0392; in that of `O=C(Nc1ccc(Cl)cc1)NC1CCCCC1Cc1ccco1` (stereo not given), active: 7.39.
In turn, `O=C(CCCOc1ccccc1)Nc1ccc2c(c1)OCCO2` had a z-score of 0.0498.
Turning to `O=S1(=O)CCN2C(c3ccco3)=CSC2=N1`, the z-score amounted to 0.0459.
As for `O=C(Cc1cccs1)Nc1ccc(-c2nc3ccccc3[nH]2)cc1`, the z-score is -0.182.
In the case of `Cc1cc(C)cc(NC(=O)Cn2c(=O)oc3cc(S(=O)(=O)N4CCC(C)CC4)ccc32)c1` it was -0.0288; in that of `Cc1cc(=O)oc(C)c1C(=O)NCc1cccnc1`, -0.117; in that of `CCC(=O)Nc1nnc(Sc2ccc(N(C)C)cc2)s1`, 1.43.
In the case of `COC(=O)c1sccc1-c1ccc(C(=O)Nc2cccnc2)o1` it was -1.4.
`Cc1ccc(/C=N/n2c(COc3ccccc3)n[nH]c2=S)s1`: the z-score was active: 3.29.
In the case of `Cc1cccc(NCN2C(=O)c3ccccc3C2=O)c1` it was 0.0948; in that of `O=C(CSc1nnc2c(Cl)cc(C(F)(F)F)cn12)NCc1ccc(F)cc1`, -0.0106.
In the case of `O=C(Nc1nccs1)c1sc2cc(Cl)ccc2c1Cl` it was 1.87.
In the case of `CCCNC(=O)CN(Cc1ccccc1F)S(=O)(=O)c1ccc(C)cc1` it was -0.207; in that of `O=C(N/N=C/c1c(Cl)cccc1Cl)c1cccc(F)c1`, active: 3.05; in that of `Cc1ccc(C)c(-n2c(CNC(=O)c3ccco3)nnc2SCC(=O)N2CCc3ccccc32)c1`, 0.53.
In the case of `OC(CNCc1ccccc1)Cn1ccc2ccccc21` (stereo not given), the z-score was -0.0495.
On to `O=C(COC(=O)c1cnccn1)c1ccc2c(c1)CCCC2`, for which the z-score was found to be 0.408.
In the case of `C=CCOc1cccc(C2/C(=C(/O)c3ccc(F)cc3)C(=O)C(=O)N2CCN2CCOCC2)c1` (stereo not given) it was -0.175; in that of `COc1ccc([N+](=O)[O-])cc1/C=N/NC(=O)CNC(=O)c1cccc(F)c1`, -0.267.
